According to the supplement of paper PMC4967469:

Columns and labels:
Assay in all cases: Viability of human cancer cell lines after 72 h of drug (GDSC screen)
Tamoxifen = compound: CC/C(=C(\c1ccccc1)c1ccc(OCCN(C)C)cc1)c1ccccc1 [Tamoxifen]; conditions: top dose 5 µM
Description: (§1)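 Human cancer cell lines in 384-well plates, medium with 10% serum, drug for 72 h over a 256-fold dose range (nine 2-fold or five 4-fold steps up to the top dose). Adherent lines were fixed and stained with the nucleic acid dye Syto60, suspension lines read with resazurin; signal relative to control wells, capped at 0 and 100%. One two-parameter sigmoid per drug and line, fitted in a mixed model over all curves with the slope shared within a line.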

VNLG/124 = compound: CCCC(=O)OCc1ccc(OC(=O)/C=C(C)/C=C/C=C(C)/C=C/C2=C(C)CCCC2(C)C)cc1 [VNLG/124]; conditions: top dose 5.12 µM; top dose inferred
Description: as §1

Elesclomol = compound: CN(NC(=O)CC(=O)NN(C)C(=S)c1ccccc1)C(=S)c1ccccc1 [Elesclomol]; conditions: top dose 0.2 µM; top dose inferred
Description: as §1

HG-5-88-01 = compound: COc1cc(N2CCC(C(N)=O)CC2)ccc1Nc1nc(N)c(Cl)c(Nc2ccccc2S(=O)(=O)C(C)C)n1 [HG-5-88-01]; conditions: top dose 10 µM; top dose inferred
Description: as §1

Bleomycin = compound: Cc1c(N)nc([C@H](CC(N)=O)NC[C@H](N)C(N)=O)nc1C(=O)N[C@H](C(=O)N[C@H](C)[C@@H](O)[C@H](C)C(=O)N[C@H](C(=O)NCCc1nc(-c2nc(C(=O)NCCC[S+](C)C)cs2)cs1)[C@@H](C)O)[C@@H](OC1OC(CO)C(O)C(O)C1OC1OC(CO)C(O)C(OC(N)=O)C1O)c1cnc[nH]1 [Bleomycin]
Description: as §1

Masitinib = compound: Cc1ccc(NC(=O)c2ccc(CN3CCN(C)CC3)cc2)cc1Nc1nc(-c2cccnc2)cs1 [Masitinib]; conditions: top dose 20 µM
Description: as §1

LAQ824 = compound: O=C(/C=C/c1ccc(CN(CCO)CCc2c[nH]c3ccccc23)cc1)NO [LAQ824]; conditions: top dose 1.024 µM; top dose inferred
Description: as §1

OSI-930 = compound: O=C(Nc1ccc(OC(F)(F)F)cc1)c1sccc1NCc1ccnc2ccccc12 [OSI-930]; conditions: top dose 10.24 µM
Description: as §1

BX-912 = compound: O=C(Nc1cccc(Nc2ncc(Br)c(NCCc3cnc[nH]3)n2)c1)N1CCCC1 [BX-912]; conditions: top dose 10.24 µM; top dose inferred
Description: as §1

NSC-87877 = compound: O=S(=O)(O)c1ccc2cc(N=Nc3cc(S(=O)(=O)O)c4cccnc4c3O)ccc2c1 [NSC-87877]; conditions: top dose 16 µM; top dose inferred
Description: as §1

[1] = top dose 50 µM, screen: GDSC drug entry 1378, top dose inferred
[2] = top dose 64 µM, screen: GDSC drug entry 190

Row | Cell Line | AUC (Tamoxifen) | IC50 (Tamoxifen) [µM] | AUC (VNLG/124) | IC50 (VNLG/124) [µM] | AUC (Elesclomol) | IC50 (Elesclomol) [µM] | AUC (HG-5-88-01) | IC50 (HG-5-88-01) [µM] | AUC (Bleomycin; [1]) | IC50 (Bleomycin; [1]) [µM] | AUC (Bleomycin; [2]) | IC50 (Bleomycin; [2]) [µM] | AUC (Masitinib) | IC50 (Masitinib) [µM] | AUC (LAQ824) | IC50 (LAQ824) [µM] | AUC (OSI-930) | IC50 (OSI-930) [µM] | AUC (BX-912) | IC50 (BX-912) [µM] | AUC (NSC-87877) | IC50 (NSC-87877) [µM]
1 | OVCAR-4 (ovary, adherent) | 0.965 | > 5 | 0.974 | > 5.12 | 0.411 | 0.00632 | 0.83 | > 10 | 0.764 | 27.4 | 0.509 | 4.29 | 0.948 | > 20 | 0.447 | 0.0427 | 0.966 | > 10.2 | 0.976 | > 10.2 | 0.977 | > 16
2 | OVISE (ovary, adherent) | 0.977 | > 5 | 0.981 | > 5.12 | 0.489 | 0.0116 | 0.962 | > 10 | 0.752 | 21.5 | 0.642 | 11.3 | 0.874 | > 20 | 0.534 | 0.0815 | 0.976 | > 10.2 | 0.938 | > 10.2 | 0.925 | > 16
3 | OVKATE (ovary, adherent) | 0.977 | > 5 | 0.964 | > 5.12 | 0.747 | 0.106 | 0.936 | > 10 | 0.975 | > 50 | 0.967 | > 64 | 0.906 | > 20 | 0.731 | 0.465 | 0.979 | > 10.2 | 0.949 | > 10.2 | 0.972 | > 16
4 | OVTOKO (ovary, adherent) | 0.963 | > 5 | 0.971 | > 5.12 | 0.355 | 0.00442 | 0.875 | > 10 | 0.485 | 2.82 | 0.333 | 1.2 | 0.864 | > 20 | 0.445 | 0.0433 | 0.966 | > 10.2 | 0.949 | > 10.2 | 0.98 | > 16
5 | PANC-02-03 (pancreas, adherent) | 0.972 | > 5 | 0.982 | > 5.12 | 0.552 | 0.0178 | 0.946 | > 10 | 0.518 | 3.53 | 0.636 | 10.3 | 0.913 | > 20 | 0.472 | 0.0528 | 0.975 | > 10.2 | 0.97 | > 10.2 | 0.983 | > 16
6 | PC-14 (lung adenocarcinoma, adherent) | 0.989 | > 5 | 0.989 | > 5.12 | 0.634 | 0.028 | 0.781 | 3.68 | 0.264 | 0.726 | 0.175 | 0.485 | 0.826 | 10.4 | 0.53 | 0.0767 | 0.959 | > 10.2 | 0.878 | 8.42 | 0.989 | > 16
7 | PCI-4B (head and neck, adherent) | 0.975 | > 5 | 0.984 | > 5.12 | 0.475 | 0.0108 | 0.941 | > 10 | 0.239 | 0.58 | 0.43 | 2.61 | 0.896 | > 20 | 0.393 | 0.033 | 0.939 | > 10.2 | 0.833 | 6.11 | 0.986 | > 16
8 | PCI-6A (head and neck, adherent) | 0.986 | > 5 | 0.918 | > 5.12 | 0.45 | 0.00913 | 0.982 | > 10 | 0.462 | 2.47 | 0.634 | 9.31 | 0.951 | > 20 | 0.246 | 0.0121 | 0.987 | > 10.2 | 0.873 | 9.52 | 0.947 | > 16
9 | PCI-30 (head and neck, adherent) | 0.983 | > 5 | 0.98 | > 5.12 | 0.481 | 0.0109 | 0.964 | > 10 | 0.625 | 7.48 | 0.979 | > 64 | 0.975 | > 20 | 0.659 | 0.196 | 0.979 | > 10.2 | 0.904 | > 10.2 | 0.985 | > 16
10 | PFSK-1 (medulloblastoma, adherent) | 0.975 | > 5 | 0.98 | > 5.12 | 0.277 | 0.00279 | 0.712 | 2.58 | 0.491 | 2.95 | 0.782 | 28.4 | 0.95 | > 20 | 0.69 | 0.227 | 0.972 | > 10.2 | 0.941 | > 10.2 | 0.985 | > 16
11 | PL-21 (acute myeloid leukaemia, suspension) | 0.956 | > 5 | 0.814 | 3.4 | 0.868 | > 0.2 | 0.79 | 5.29 | 0.96 | > 50 | 0.508 | 4.23 | 0.86 | > 20 | 0.527 | 0.0769 | 0.951 | > 10.2 | 0.661 | 1.95 | 0.981 | > 16
12 | RC-K8 (B-cell lymphoma, suspension) | 0.965 | > 5 | 0.993 | > 5.12 | 0.949 | > 0.2 | 0.991 | > 10 | 0.977 | > 50 | 0.818 | 30.2 | 0.99 | > 20 | 0.592 | 0.11 | 0.992 | > 10.2 | 0.993 | > 10.2 | 0.99 | > 16
13 | RCM-1 (large intestine, adherent) | 0.981 | > 5 | 0.98 | > 5.12 | 0.963 | > 0.2 | 0.927 | > 10 | 0.913 | > 50 | 0.383 | 1.77 | 0.949 | > 20 | 0.606 | 0.134 | 0.951 | > 10.2 | 0.981 | > 10.2 | 0.984 | > 16
14 | RERF-LC-KJ (lung adenocarcinoma, adherent) | 0.977 | > 5 | 0.983 | > 5.12 | 0.474 | 0.0106 | 0.974 | > 10 | 0.547 | 4.2 | 0.734 | 19 | 0.966 | > 20 | 0.83 | 0.668 | 0.978 | > 10.2 | 0.935 | > 10.2 | 0.987 | > 16
15 | RERF-LC-MS (lung adenocarcinoma, adherent) | 0.974 | > 5 | 0.987 | > 5.12 | 0.456 | 0.00946 | 0.92 | > 10 | 0.537 | 3.95 | 0.799 | 31.6 | 0.984 | > 20 | 0.706 | 0.249 | 0.986 | > 10.2 | 0.983 | > 10.2 | 0.939 | > 16
16 | RERF-LC-Sq1 (lung squamous cell carcinoma, adherent) | 0.95 | > 5 | 0.977 | > 5.12 | 0.74 | 0.0862 | 0.879 | > 10 | 0.709 | 16.2 | 0.927 | > 64 | 0.915 | > 20 | 0.842 | > 1.02 | 0.975 | > 10.2 | 0.802 | 8.14 | 0.878 | > 16
17 | RH-1 (rhabdomyosarcoma, adherent) | 0.991 | > 5 | 0.984 | > 5.12 | 0.754 | 0.0575 | 0.666 | 1.66 | 0.05 | < 0.195 | 0.115 | 0.32 | 0.883 | 15.4 | 0.432 | 0.0431 | 0.979 | > 10.2 | 0.334 | 0.241 | 0.98 | > 16
18 | RKN (ovary, adherent) | 0.981 | > 5 | 0.984 | > 5.12 | 0.579 | 0.0208 | 0.872 | > 10 | 0.198 | 0.37 | 0.807 | 35.3 | 0.889 | > 20 | 0.571 | 0.101 | 0.973 | > 10.2 | 0.793 | 4.99 | 0.983 | > 16
19 | RKO (large intestine, adherent) | 0.987 | > 5 | 0.986 | > 5.12 | 0.579 | 0.0202 | 0.981 | > 10 | 0.788 | 20.2 | 0.234 | 0.731 | 0.902 | > 20 | 0.376 | 0.0299 | 0.939 | > 10.2 | 0.791 | 4.24 | 0.981 | > 16
20 | RL (B-cell lymphoma, suspension) | 0.987 | > 5 | 0.967 | > 5.12 | 0.61 | 0.0243 | 0.968 | > 10 | 0.827 | 27.2 | 0.896 | > 64 | 0.85 | 13.2 | 0.606 | 0.122 | 0.967 | > 10.2 | 0.814 | 5.01 | 0.988 | > 16
21 | RO82-W-1 (thyroid, adherent) | 0.978 | > 5 | 0.983 | > 5.12 | 0.595 | 0.0245 | 0.892 | > 10 | 0.518 | 3.54 | 0.855 | > 64 | 0.983 | > 20 | 0.606 | 0.136 | 0.979 | > 10.2 | 0.937 | > 10.2 | 0.983 | > 16
22 | RPMI-7951 (melanoma, adherent) | 0.986 | > 5 | 0.961 | > 5.12 | 0.673 | 0.0373 | 0.945 | > 10 | 0.448 | 2.27 | 0.393 | 2.06 | 0.837 | 12.8 | 0.456 | 0.0488 | 0.931 | > 10.2 | 0.879 | 9.92 | 0.963 | > 16
23 | RPMI-8402 (T-cell lymphoblastic leukaemia, suspension) | 0.968 | > 5 | 0.975 | > 5.12 | 0.865 | 0.131 | 0.971 | > 10 | 0.891 | 41.8 | 0.781 | 22.3 | 0.814 | 8.74 | 0.215 | 0.0112 | 0.893 | 8.71 | 0.278 | 0.17 | 0.98 | > 16

IC50 is the fitted dose that halves viability relative to control wells, and lower means more sensitive; where the fit passes the top or lowest dose, that dose stands as a limit. AUC is the area under the same curve over the 256-fold range up to the top dose, as a fraction; it is 1 without any effect and falls as sensitivity rises. For some assays here: An inferred top dose comes from the curve model; the source does not state it. For some assays here: Where an entry number is given, a second screen of the drug exists; the two often differ.
